# Results published in the supplement of paper PMC8728848.
# The list shows a part of the results.
# What was measured:
# Assay in all cases: glycan array binding signal (z-score within array); higher = stronger binding
# Conditions in all cases: glycan notation: IUPAC condensed, linker removed
# [1] = target: Neu5Ac(a2-3)Gal(b1-4)[Fuc(a1-3)]GlcNAc
# How it was run: (§1)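 From the Consortium for Functional Glycomics database, 3228 arrays were curated, keeping only those whose protein sequence was available. Binding is given as a within-array Z-score averaged across arrays sharing a protein sequence and across linkers. Negative Z-scores can be read as non-binding.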
# [2] = target: Neu5Ac(a2-3)Gal(b1-4)[Fuc(a1-3)]GlcNAc(b1-3)Gal
# How it was run: as §1
# [3] = target: Neu5Ac(a2-3)Gal(b1-4)[Fuc(a1-3)]GlcNAc(b1-3)Gal(b1-4)GlcNAc
# How it was run: as §1
# [4] = target: Neu5Ac(a2-3)Gal(b1-4)[Fuc(a1-3)]GlcNAc(b1-3)Gal(b1-4)[Fuc(a1-3)]GlcNAc(b1-3)Gal(b1-4)[Fuc(a1-3)]GlcNAc
# How it was run: as §1
# [5] = target: Neu5Ac(a2-3)Gal(b1-4)[Fuc(a1-3)]GlcNAc6S
# How it was run: as §1
# [6] = target: Neu5Ac(a2-3)Gal6S(b1-4)GlcNAc
# How it was run: as §1
# [7] = target: Neu5Ac(a2-3)Gal6S(b1-4)[Fuc(a1-3)]GlcNAc
# How it was run: as §1
# Neu5Ac(a2-3)GalNAc = target: Neu5Ac(a2-3)GalNAc
# How it was run: as §1
# [8] = target: Neu5Ac(a2-3)GalNAc(b1-4)GlcNAc
# How it was run: as §1
# [9] = target: Neu5Ac(a2-3)[GalNAc(b1-4)]Gal(b1-4)Glc
# How it was run: as §1
# [10] = target: Neu5Ac(a2-3)[GalNAc(b1-4)]Gal(b1-4)GlcNAc
# How it was run: as §1
# [11] = target: Neu5Ac(a2-3)[Neu5Ac(a2-6)]GalNAc
# How it was run: as §1
# Neu5Ac(a2-6)Gal = target: Neu5Ac(a2-6)Gal
# How it was run: as §1
# Neu5Ac(a2-6)Gal(b1-4)Glc = target: Neu5Ac(a2-6)Gal(b1-4)Glc
# How it was run: as §1
# [12] = target: Neu5Ac(a2-6)Gal(b1-4)GlcNAc
# How it was run: as §1
# [13] = target: Neu5Ac(a2-6)Gal(b1-4)GlcNAc(b1-2)Man(a1-3)[Neu5Ac(a2-6)Gal(b1-4)GlcNAc(b1-2)Man(a1-6)]Man(b1-4)GlcNAc(b1-4)GlcNAc
# How it was run: as §1
# [14] = target: Neu5Ac(a2-6)Gal(b1-4)GlcNAc(b1-3)Gal(b1-4)GlcNAc
# How it was run: as §1
# [15] = target: Neu5Ac(a2-6)Gal(b1-4)GlcNAc(b1-3)Gal(b1-4)[Fuc(a1-3)]GlcNAc(b1-3)Gal(b1-4)[Fuc(a1-3)]GlcNAc
# How it was run: as §1
# [16] = target: Neu5Ac(a2-6)Gal(b1-4)GlcNAc6S
# How it was run: as §1
# Neu5Ac(a2-6)GalNAc = target: Neu5Ac(a2-6)GalNAc
# How it was run: as §1
# [17] = target: Neu5Ac(a2-6)GalNAc(b1-4)GlcNAc
# How it was run: as §1
# Neu5Ac(a2-8)Neu5Ac = target: Neu5Ac(a2-8)Neu5Ac
# How it was run: as §1
# [18] = target: Neu5Ac(a2-8)Neu5Ac(a2-3)Gal(b1-4)Glc
# How it was run: as §1
# [19] = target: Neu5Ac(a2-8)Neu5Ac(a2-3)[GalNAc(b1-4)]Gal(b1-4)Glc
# How it was run: as §1
# [20] = target: Neu5Ac(a2-8)Neu5Ac(a2-8)Neu5Ac
# How it was run: as §1
# [21] = target: Neu5Ac(a2-8)Neu5Ac(a2-8)Neu5Ac(a2-3)Gal(b1-4)Glc
# How it was run: as §1
# [22] = target: Neu5Ac(a2-8)Neu5Ac(a2-8)Neu5Ac(a2-3)[GalNAc(b1-4)]Gal(b1-4)Glc
# How it was run: as §1
# [23] = target: Neu5Ac(a2-8)Neu5Ac(a2-8)Neu5Ac(a2-8)Neu5Ac(a2-3)[GalNAc(b1-4)]Gal(b1-4)Glc
# How it was run: as §1
# Neu5Ac(b1-6)GalNAc = target: Neu5Ac(b1-6)GalNAc
# How it was run: as §1
# [24] = target: Neu5Ac(b2-6)Gal(b1-4)GlcNAc
# How it was run: as §1
# [25] = target: Neu5Ac9Ac(a2-6)Gal(b1-4)GlcNAc
# How it was run: as §1
# [26] = target: Neu5Gc(a2-3)Gal(b1-3)GlcNAc
# How it was run: as §1
# [27] = target: Neu5Gc(a2-3)Gal(b1-3)[Fuc(a1-4)]GlcNAc
# How it was run: as §1
# Neu5Gc(a2-3)Gal(b1-4)Glc = target: Neu5Gc(a2-3)Gal(b1-4)Glc
# How it was run: as §1
# [28] = target: Neu5Gc(a2-3)Gal(b1-4)GlcNAc
# How it was run: as §1
# [29] = target: Neu5Gc(a2-3)Gal(b1-4)[Fuc(a1-3)]GlcNAc
# How it was run: as §1
# [30] = target: Neu5Gc(a2-6)Gal(b1-4)GlcNAc
# How it was run: as §1
# Neu5Gc(a2-6)GalNAc = target: Neu5Gc(a2-6)GalNAc
# How it was run: as §1
binder,measurement,setting,value
"DEC205 (Homo sapiens), O60449 (protein) MRTGWATPRRPAGLLMLLFWFFDLAEPSGRAANDPFTIVHGNTGKCIKPVYGWIVADDCDETEDKLWKWVSQHRLFHLHSQKCLGLDITKSVNELRMFSCDSSAMLWWKCEHHSLYGAARYRLALKDGHGTAISNASDVWKKGGSEESLCDQPYHEIYTRDGNSYGRPCEFPFLIDGTWHHDCILDEDHSGPWCATTLNYEYDRKWGICLKPENGCEDNWEKNEQFGSCYQFNTQTALSWKEAYVSCQNQGADLLSINSAAELTYLKEKEGIAKIFWIGLNQLYSARGWEWSDHKPLNFLNWDPDRPSAPTIGGSSCARMDAESGLWQSFSCEAQLPYVCRKPLNNTVELTDVWTYSDTRCDAGWLPNNGFCYLLVNESNSWDKAHAKCKAFSSDLISIHSLADVEVVVTKLHNEDIKEEVWIGLKNINIPTLFQWSDGTEVTLTYWDENEPNVPYNKTPNCVSYLGELGQWKVQSCEEKLKYVCKRKGEKLNDASSDKMCPPDEGWKRHGETCYKIYEDEVPFGTNCNLTITSRFEQEYLNDLMKKYDKSLRKYFWTGLRDVDSCGEYNWATVGGRRRAVTFSNWNFLEPASPGGCVAMSTGKSVGKWEVKDCRSFKALSICKKMSGPLGPEEASPKPDDPCPEGWQSFPASLSCYKVFHAERIVRKRNWEEAERFCQALGAHLSSFSHVDEIKEFLHFLTDQFSGQHWLWIGLNKRSPDLQGSWQWSDRTPVSTIIMPNEFQQDYDIRDCAAVKVFHRPWRRGWHFYDDREFIYLRPFACDTKLEWVCQIPKGRTPKTPDWYNPDRAGIHGPPLIIEGSEYWFVADLHLNYEEAVLYCASNHSFLATITSFVGLKAIKNKIANISGDGQKWWIRISEWPIDDHFTYSRYPWHRFPVTFGEECLYMSAKTWLIDLGKPTDCSTKLPFICEKYNVSSLEKYSPDSAAKVQCSEQWIPFQNKCFLKIKPVSLTFSQASDTCHSYGGTLPSVLSQIEQDFITSLLPDMEATLWIGLRWTAYEKINKWTDNRELTYSNFHPLLVSGRLRIPENFFEEESRYHCALILNLQKSPFTGTWNFTSCSERHFVSLCQKYSEVKSRQTLQNASETVKYLNNLYKIIPKTLTWHSAKRECLKSNMQLVSITDPYQQAFLSVQALLHNSSLWIGLFSQDDELNFGWSDGKRLHFSRWAETNGQLEDCVVLDTDGFWKTVDCNDNQPGAICYYSGNETEKEVKPVDSVKCPSPVLNTPWIPFQNCCYNFIITKNRHMATTQDEVHTKCQKLNPKSHILSIRDEKENNFVLEQLLYFNYMASWVMLGITYRNNSLMWFDKTPLSYTHWRAGRPTIKNEKFLAGLSTDGFWDIQTFKVIEEAVYFHQHSILACKIEMVDYKEEHNTTLPQFMPYEDGIYSVIQKKVTWYEALNMCSQSGGHLASVHNQNGQLFLEDIVKRDGFPLWVGLSSHDGSESSFEWSDGSTFDYIPWKGQTSPGNCVLLDPKGTWKHEKCNSVKDGAICYKPTKSKKLSRLTYSSRCPAAKENGSRWIQYKGHCYKSDQALHSFSEAKKLCSKHDHSATIVSIKDEDENKFVSRLMRENNNITMRVWLGLSQHSVDQSWSWLDGSEVTFVKWENKSKSGVGRCSMLIASNETWKKVECEHGFGRVVCKVPLGPDYTAIAIIVATLSILVLMGGLIWFLFQRHRLHLAGFSSVRYAQGVNEDEIMLPSFHD",glycan array binding signal (z-score),[1],-0.189
same,glycan array binding signal (z-score),[2],-0.262
same,glycan array binding signal (z-score),[3],-0.319
same,glycan array binding signal (z-score),[4],-0.185
same,glycan array binding signal (z-score),[5],-0.001
same,glycan array binding signal (z-score),[6],-0.126
same,glycan array binding signal (z-score),[7],-0.219
same,glycan array binding signal (z-score),Neu5Ac(a2-3)GalNAc,0.006
same,glycan array binding signal (z-score),[8],-0.215
same,glycan array binding signal (z-score),[9],-0.279
same,glycan array binding signal (z-score),[10],-0.127
same,glycan array binding signal (z-score),[11],-0.377
same,glycan array binding signal (z-score),Neu5Ac(a2-6)Gal,-0.364
same,glycan array binding signal (z-score),Neu5Ac(a2-6)Gal(b1-4)Glc,-0.103
same,glycan array binding signal (z-score),[12],-0.196
same,glycan array binding signal (z-score),[13],-0.15
same,glycan array binding signal (z-score),[14],-0.31
same,glycan array binding signal (z-score),[15],0.015
same,glycan array binding signal (z-score),[16],-0.198
same,glycan array binding signal (z-score),Neu5Ac(a2-6)GalNAc,-0.277
same,glycan array binding signal (z-score),[17],-0.115
same,glycan array binding signal (z-score),Neu5Ac(a2-8)Neu5Ac,-0.29
same,glycan array binding signal (z-score),[18],-0.285
same,glycan array binding signal (z-score),[19],0.013
same,glycan array binding signal (z-score),[20],-0.206
same,glycan array binding signal (z-score),[21],-0.236
same,glycan array binding signal (z-score),[22],-0.243
same,glycan array binding signal (z-score),[23],-0.012
same,glycan array binding signal (z-score),Neu5Ac(b1-6)GalNAc,-0.143
same,glycan array binding signal (z-score),[24],-0.124
same,glycan array binding signal (z-score),[25],-0.09
same,glycan array binding signal (z-score),[26],-0.411
same,glycan array binding signal (z-score),[27],-0.26
same,glycan array binding signal (z-score),Neu5Gc(a2-3)Gal(b1-4)Glc,-0.194
same,glycan array binding signal (z-score),[28],-0.169
same,glycan array binding signal (z-score),[29],-0.073
same,glycan array binding signal (z-score),[30],-0.229
same,glycan array binding signal (z-score),Neu5Gc(a2-6)GalNAc,-0.281
